Assay [1] has as its target T1, IL-4 receptor alpha-Fc (R&D Systems) (human, UniProt P24394 26-232).
T1 construct: Bought Fc fusion
As to the kind of experiment: competition ELISA: IL-4 receptor alpha-Fc (15 nM) preincubated with mutein, free receptor caught on IL-4-coated plate (competitor IL-4). (ELISA stands for enzyme-linked immunosorbent assay.)

Assay [2] deals with T1, IL-4 receptor alpha-Fc (R&D Systems). Put plainly: SPR (Biacore), IL-4 receptor alpha-Fc captured via anti-human Fc, mutein injected. A general note: Surface plasmon resonance follows binding to a sensor surface in real time, without labels.
For assay [3] the target is unchanged. Put plainly: competition ELISA: 15 nM IL-4 receptor alpha-Fc pre-incubated with the mutein, free receptor caught on coated IL-4 (20 ug/ml), detected with anti-human-Fc-HRP.
Assay [4] concerns the target T2, human IL-4 receptor alpha on cells (peripheral blood lymphocytes, primary B cells, TF-1, A549, PBMC) (human, UniProt P24394 26-825). As to the kind of experiment: cell-based or functional assay.
For assay [5], the target named is T2, human IL-4 receptor alpha on cells …. As to the kind of experiment: cell-based or functional assay. The source holds these as a separate data set.
The target of assay [6] is T3, biotinylated IL-4 receptor alpha (Peprotech) (human, UniProt P24394 26-232, limits assumed, biotinylated (sites not told)).
T3 construct: Bought soluble protein; also called IL-4R alpha-bio
Put plainly: competition ELISA: 0.5 nM biotinylated IL-4 receptor alpha pre-incubated with the mutein, free receptor caught on coated MAB230, detected with Extravidin-HRP; fit y = 0.5*(-m0+m2-m1+sqrt(-m0..., KD = m1 per legend paragraph 197)); one representative experiment.

Assay [7] has as its target T1, IL-4 receptor alpha-Fc (R&D Systems). As to the kind of experiment: SPR (Biacore), IL-4 receptor alpha-Fc captured via anti-human Fc, mutein injected; average (SD) of five.
The target of assay [8] is T4, cynomolgus IL-4 receptor alpha on peripheral blood lymphocytes (cynomolgus).
T4 construct: whole, on cells
Put plainly: flow cytometry, cynomolgus peripheral blood lymphocytes, 10 µg/ml. On the technique in general: In flow cytometry, cells or beads pass a laser one at a time.

Assay [9] concerns the target T2, human IL-4 receptor alpha on cells …. Put plainly: cell-based or functional assay. The source holds these as a separate data set.
Assay [10] has the same target. As to the kind of experiment: flow cytometry, human peripheral blood lymphocytes, 10 µg/ml.
Assay [11] has as its target T3, biotinylated IL-4 receptor alpha …. As to the kind of experiment: competition ELISA: biotinylated IL-4 receptor alpha (0.5 nM) preincubated with mutein, MAB230-coated plate (competitor MAB230); average (SD) of three.
Assay [12] addresses T2, human IL-4 receptor alpha on cells …. As to the kind of experiment: flow cytometry on human primary B cells (CD20+ PBMC), anti-lipocalin antiserum and streptavidin-PE; % PE-positive B cells against concentration.
Assay [13] deals with T5, human serum albumin (human, UniProt P02768 25-609).
T5 construct: also called HSA
Put plainly: SPR (Biacore), ~850 RU human serum albumin amine-coupled, fusion injected at 500 nM.

Changes are numbered by the printed parent chain. Names may count otherwise.

B1: human tear lipocalin mutein S148.3 J14 (designed binder)
chain: ASDEEIQDVSGTWYLKAMTVDSRCPRAYYGSVTPMTLTTLEGGNLEAKVTMQRIGRSQEVKAVLEKTDEPGKYTASGGRHVAYIIRSHVKDHYIFYSEGLCPGQPVPGVWLVGRDPKNNLEALEDFEKAAGARGLSTESILIPRQSETSSPGSA
notes: N-terminal T7-tag and C-terminal Strep-tag II are part of the characterized protein
In general, Ki refers to the equilibrium dissociation constant of an inhibitor or competing ligand from its target. Low values mean a stronger hold on the target, high ones a looser hold on the target. Broadly, the Kd is the constant that tells how readily two partners part at equilibrium. Low values mean higher affinity, high ones lower affinity. The koff is the rate constant with which the complex falls apart. A word on the kon: it is a measure of how fast the partners come together. A high value points to fast association. Take B1: in assay [1], the affinity, expressed as Ki, was 17.3 nM. Besides, in assay [2], the Kd turned out to be 37.5 nM, the koff is 0.00517 s⁻¹ and the on-rate constant (kon) came to 140000 M⁻¹ s⁻¹. Also, in assay [3], the “IC50 (read off the curve)” value is about 60 nM.

B2: human tear lipocalin mutein S191.4 B24 (designed binder)
chain: B1 chain with G30S, V49F, M51A, I54S, S57W, V60Y, A62L, Y96H
A word on the EC50: it is the midpoint of the concentration-response curve. Low values mean higher potency in that assay, high ones lower potency in that assay. As for B2, in assay [4], the “IC50, IL-4 mediated eotaxin-3 secretion in A549 cells” value turned out to be 32 nM and the “IC50, IL-13 mediated eotaxin-3 secretion in A549 cells” value came to 5.1 nM. In assay [5], the “IC50, IL-4 mediated CD23 expression in PBMCs” value stood at 905 nM and the “IC50, IL-13 mediated CD23 expression in PBMCs” value was 72 nM. In [6], this molecule displayed a Kd of 0.0524 nM. In assay [7], this molecule displayed a Kd of 0.0193 nM, a koff of 4.9e-05 s⁻¹ and a kon of 2.6e+06 M⁻¹ s⁻¹. In addition, in assay [8], the “% Positive” value came out at 80% and the MFI came out at 9.2. Besides, in assay [9], the “Kd on cells, Schild analysis of IL-4 dependent TF-1 viability (linear regression)” value was 0.192 nM and the “Kd on cells, Schild analysis of IL-4 dependent TF-1 viability (non-linear regression)” value is 0.116 nM. In assay [10], the “% Positive” value stood at 74% and the MFI worked out at 9.3. This molecule also returned a Kd in [11] of 0.0492 nM. In addition, the EC50 in assay [12] worked out at 0.105 nM.

B3: wildtype Tlc-ABD (other)
chain: ASDEEIQDVSGTWYLKAMTVDREFPEMNLESVTPMTLTTLEGGNLEAKVTMLISGRSQEVKAVLEKTDEPGKYTADGGKHVAYIIRSHVKDHYIFYSEGELHGKPVPGVWLVGRDPKNNLEALEDFEKAAGARGLSTESILIPRQSETSSPGSAGAVDANSLAEAKVLANRELDKYGVSDYYKNLINNAKTVEGVKALIDEILAALPSAWSHPQFEK
notes: also called TLPC51
In assay [13], B3 yielded a Kd of about 20 nM.

The values are drawn from US20090305982A1 (Pieris, published 2009).
